Measurements reported in the supplement of paper PMC4723716.
± gives the uncertainty stated by the source. Over roughly 9,900 compounds, “viability index relative to DMSO control” has its median near 1; the lowest 2% begin near 0.85. The list shows a part of the results.

Tested on: Plasmodium falciparum NF54 stage V gametocytes
Test: viability index relative to DMSO control (fraction); higher = less gametocyte killing
Settings: 2.5 µM, incubation time: 72 h
Method in brief: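 Gametocytes (P. falciparum NF54, stage V) were treated with compound at 2.5 µM for 72 hr at 37°C in low oxygen, in serum-free medium at 0.75% gametocytemia and 1.25% hematocrit. Counts of 20–70 µm2 red particles, taken from one field per well after MitoTracker Red CMXRos with saponin, were divided by the plate mean of solvent-only wells. This ratio is the viability index.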

[1] = library set: Broad Institute DOS

| Structure (SMILES) | viability index [1] | viability index (library set: Broad Institute Blood Stage) |
| --- | --- | --- |
| CO[C@@H]1CN(C)C(=O)c2ccc(NC(=O)C3CCC3)cc2OC[C@@H](C)N(Cc2ccccn2)C[C@H]1C | 1.1 ± 0.033 | – |
| CN1c2ccc(-c3cccc(C#N)c3)cc2[C@@H]2[C@@H](CCN2C(=O)Cc2ccccn2)[C@@H]1CO | 0.9765 ± 0.0085 | – |
| Cc1noc(C)c1S(=O)(=O)N(C)C[C@H]1Oc2c(NC(=O)c3ccc(-c4nccs4)cc3)cccc2C(=O)N([C@H](C)CO)C[C@@H]1C | 0.976 ± 0.013 | – |
| COc1ccc(C#Cc2ccc([C@@H]3[C@H]4CN(C(=O)c5ccc(F)cc5)CC(=O)N4[C@H]3CO)cc2)cc1 | 1.02 ± 0.073 | – |
| CO[C@@H]1CC[C@@H]2CCOc3ccc(C#N)cc3C(=O)N(C)C[C@H](c3ccccc3)CC(=O)N(C)C[C@H]1O2 | 1.02 ± 0.058 | – |
| C/C=C/c1ccc([C@H]2[C@@H]3CN(C(=O)NC4CCCCC4)C[C@H]2N3)cc1 | 1.05 ± 0.056 | – |
| O=C(Nc1ccccc1Cl)N1C[C@@H]2[C@H](c3ccccc31)[C@H](CO)N2C(=O)c1cccnc1 | 1.07 ± 0.012 | – |
| N#C[C@H]1[C@H](c2ccccc2-c2cccc(F)c2)[C@@H](CO)N1C(=O)C1CC1 | 1.15 ± 0.019 | – |
| O=C1CNC[C@H]2[C@H](c3ccc(C4=CCCC4)cc3)[C@H](CO)N12 | 0.995 ± 0.021 | – |
| C[C@H](NC(=O)C[C@H]1C[C@@H]2c3cc(NS(=O)(=O)c4ccc(F)cc4)ccc3O[C@@H]2[C@H](CO)O1)c1ccccc1 | 1.07 ± 0.011 | – |
| C/C=C/c1ccc2c(c1)[C@@H]1[C@@H](CCN1C(=O)Cc1ccncc1)[C@@H](CO)N2C | 1.11 ± 0.031 | – |
| Cc1noc(C)c1NC(=O)Nc1ccc2c(c1)C(=O)N(C)[C@@H]1CC[C@H](CC(=O)N[C@H]3CCN(Cc4ccccc4)C3)O[C@H]1CO2 | 1.13 ± 0.1 | – |
| Cc1ccccc1-c1ccc([C@H]2[C@H]3CNC[C@@H]2N3S(=O)(=O)c2ccccc2)cc1 | 1.07 ± 0.014 | – |
| COc1cccc(NC(=O)N2CC(=O)N3[C@@H](CO)[C@@H](c4ccc(C#CCC5CCCC5)cc4)[C@@H]3C2)c1 | 1.01 ± 0.018 | – |
| COc1ccc(S(=O)(=O)Nc2ccc3c(c2)CC(=O)N([C@H](C)CO)C[C@H](C)[C@@H](CN(C)Cc2ccc(C(=O)Nc4ccccc4N)cc2)O3)cc1 | 1 ± 0.027 | – |
| O=C(C[C@@H]1C=C[C@@H](NC(=O)c2cnccn2)[C@H](CO)O1)NCc1ccccc1F | 1.04 ± 0.018 | – |
| COc1ccc2c3c([C@@H](CO)N(Cc4ccccc4F)C[C@]33CCN(CC3)C(=O)C3CCOCC3)n(C)c2c1 | 1.01 ± 0.085 | – |
| CC(C)[C@@H]1COCc2cnnn2CCC[C@H](C)C(=O)N1 | 1.09 ± 0.072 | – |
| CCc1cnc(N2[C@H](C#N)[C@@H](c3ccc(C4=CCCCC4)cc3)[C@H]2CO)s1 | 1.23 ± 0.053 | – |
| COCC(=O)N1[C@H](CO)[C@@H](c2ccccc2-c2ccccc2F)[C@@H]1C#N | 1.1 ± 0.012 | – |
| O=C(Cc1ccccn1)N[C@@H]1CC[C@@H](CCNS(=O)(=O)c2cccc(F)c2)O[C@@H]1CO | 1.08 ± 0.016 | – |
| C/C=C/c1ccc2n(c1=O)C[C@@H]1[C@@H](CO)[C@H](C(=O)N3CCc4ccccc4C3)[C@H]2N1Cc1cocn1.C/C=C\c1ccc2n(c1=O)C[C@@H]1[C@@H](CO)[C@H](C(=O)N3CCc4ccccc4C3)[C@H]2N1Cc1cocn1 | 1.048 ± 0.0066 | – |
| C[C@H]1CN([C@@H](C)CO)C(=O)c2ccccc2-c2ccccc2CO[C@H]1CN(C)Cc1cccc2c1OCCCO2 | 0.825 ± 0.16 | – |
| CN1C(=O)c2cc(NC(=O)C3CCOCC3)ccc2OC[C@H]2O[C@@H](CC(=O)Nc3ccc4c(c3)CCCC4)CC[C@@H]21 | 1.05 ± 0.019 | – |

| Structure (SMILES) | viability index [1] | viability index (library set: Broad Institute Blood Stage) |
| --- | --- | --- |
| COC(=O)C[C@@H]1CC[C@@H]2[C@@H](COc3ccc(NS(=O)(=O)c4ccc(C)cc4)cc3C(=O)N2C)O1 | 1.13 ± 0.066 | – |
| CC(=O)N1CCCCN2[C@H](CO)[C@H](c3ccc(-c4ccccc4)cc3)[C@H]2C1 | 1.01 ± 0.089 | – |
| Cc1cccc(-c2ccc([C@H]3[C@@H]4CN(Cc5cccc(F)c5)C[C@H]3N4)cc2)c1 | 1.053 ± 0.0043 | – |
| O=C(NC[C@@H]1N[C@@H](CO)[C@@H]1c1ccc(-c2ccccc2F)cc1)c1ccccn1 | 1.06 ± 0.067 | – |
| CCCC(=O)Nc1ccc2c(c1)OC[C@H](C)N(CC1CCOCC1)C[C@@H](C)[C@@H](OC)CN(C)C2=O | 1.03 ± 0.03 | – |
| CC(C)CC#Cc1ccc([C@H]2[C@@H](CO)N3C(=O)CN(C(=O)c4cccc(F)c4)C[C@H]23)cc1 | 0.982 ± 0.013 | – |
| CCC(=O)N1[C@@H]2c3ccc(C4=CCCCC4)c(=O)n3C[C@@H]2[C@@H](CO)[C@@H]1C(=O)NCc1ccc(F)cc1 | 1.014 ± 0.0092 | – |
| COc1ccc2c3c([nH]c2c1)[C@@H](CO)N(C[C@]31CCN(Cc2cncnc2)CC1)C(=O)CN(C)C | 1.06 ± 0.074 | – |
| COc1ccc(S(=O)(=O)Nc2ccc3c(c2)C(=O)N([C@@H](C)CO)C[C@H](C)[C@H](CN(C)C(=O)Nc2c(C)noc2C)OCCCC[C@@H](C)O3)cc1 | 1.09 ± 0.092 | – |
| CCCN1C[C@@H](C)[C@H](OC)CN(C)C(=O)c2cc(NS(=O)(=O)c3ccccc3)ccc2OC[C@H]1C | 1.01 ± 0.025 | – |
| CCNC(=O)C[C@H]1CC[C@H]2[C@@H](COC[C@H](O)CN2C(=O)c2ccccn2)O1 | 1.07 ± 0.052 | – |
| CN(C)CC(=O)N1[C@@H]2c3ccc(-c4cccc(F)c4)c(=O)n3C[C@@H]2[C@@H](CO)[C@@H]1C(=O)NC1CCC1 | 1.02 ± 0.1 | – |
| CN1[C@@H]2Cn3c(ccc(-c4ccncc4)c3=O)[C@H]1[C@@H](C(=O)N1CCC(Cc3ccccc3)CC1)[C@@H]2CO | 1.11 ± 0.041 | – |
| N#C[C@@H]1[C@H](c2ccc(-c3cccc(F)c3)cc2)[C@@H](CO)N1c1nc(-c2ccccc2)cs1 | 1.04 ± 0.045 | – |
| CC(C)NC(=O)Nc1ccc2c(c1)C(=O)N([C@@H](C)CO)C[C@@H](C)[C@H](CN(C)C(=O)C1CCCCC1)OCCCC[C@H](C)O2 | 1.07 ± 0.067 | – |
| C[C@@H]1CN([C@H](C)CO)C(=O)CCCn2nncc2CO[C@H]1CN(C)Cc1cccc(C(F)(F)F)c1 | 1.02 ± 0.022 | – |
| CO[C@@H](CN(C)C(=O)Nc1ccc(Cl)cc1)[C@@H](C)CN(Cc1ccccc1Cl)[C@H](C)CO | 0.98 ± 0.099 | – |
| CN1C(=O)c2cc(NC(=O)c3cscn3)ccc2OC[C@H]2O[C@H](CC(=O)N3CCOCC3)CC[C@@H]21 | 1.08 ± 0.065 | – |
| O=C(Cc1ccccc1)N1CC(=O)N2[C@H](CO)[C@H](c3ccc(C#CCc4ccccc4)cc3)[C@H]2C1 | – | 0.699 ± 0.1 |
| O=C(C[C@@H]1C=C[C@@H](NC(=O)C2CCC2)[C@@H](CO)O1)NC1CCCCC1 | 1.16 ± 0.096 | – |
| Cc1ccc(CN2CC(=O)N3[C@H](CO)[C@@H](c4ccc(-c5ccccc5F)cc4)[C@H]3C2)cc1 | 1.05 ± 0.062 | – |
| COc1ccc2c3c([nH]c2c1)[C@@H](CO)N(C)C[C@]31CN(C1)C(=O)C1CC1 | 1.05 ± 0.087 | – |
| CN1C[C@H]2[C@@H](c3ccccc31)[C@@H](CO)N2C(=O)c1cccnc1 | 0.995 ± 0.029 | – |
| CO[C@H](CN(C)S(=O)(=O)c1cccc(Cl)c1)[C@@H](C)CN(C(=O)Nc1ccccc1F)[C@H](C)CO | 1.173 ± 0.0087 | – |

| Structure (SMILES) | viability index [1] | viability index (library set: Broad Institute Blood Stage) |
| --- | --- | --- |
| N#C[C@@H]1[C@H](c2ccccc2)[C@H](CO)N1C(=O)c1ccccc1F | 1.075 ± 0.0014 | – |
| Cc1ccc(S(=O)(=O)NCC[C@H]2CC[C@@H](NC(=O)c3cccnc3)[C@H](CO)O2)cc1 | 0.984 ± 0.057 | – |
| COc1ccc(NC(=O)N(C)C[C@H]2Oc3ccc(NC(=O)CCN4CCOCC4)cc3C(=O)N([C@@H](C)CO)C[C@@H]2C)cc1 | 1 ± 0.035 | – |
| C[C@@H]1CN([C@H](C)CO)C(=O)CCCn2nncc2CO[C@H]1CN(C)C(=O)c1cc(-c2ccccc2)on1 | 0.996 ± 0.088 | – |
| CO[C@@H]1CN(C)C(=O)c2ccc(NC(=O)c3cc(C)on3)cc2OC[C@H](C)NC[C@@H]1C | 1.08 ± 0.028 | – |
| C[C@@H]1CCCCO[C@H](CN(C)CC2CC2)[C@H](C)CN([C@H](C)CO)C(=O)c2cc(NC(=O)c3ccccc3)ccc2O1 | 0.951 ± 0.027 | – |
| CS(=O)(=O)N1[C@@H]2c3cccc(=O)n3C[C@H]1[C@H](CO)[C@H]2C(=O)NCc1ccc(F)cc1 | 1.07 ± 0.13 | – |
| C[C@H](NC(=O)C[C@@H]1C[C@H]2c3cc(NS(=O)(=O)c4ccc(F)cc4)ccc3O[C@H]2[C@H](CO)O1)c1ccccc1 | 1.03 ± 0.021 | – |
| COCC(=O)N1[C@@H](C#N)[C@@H](c2ccc(C#Cc3ccccc3F)cc2)[C@@H]1CO | 1.12 ± 0.068 | – |
| CO[C@H](C(=O)N(C)C[C@@H]1OCc2ccccc2-c2ccccc2C(=O)N([C@H](C)CO)C[C@H]1C)c1ccccc1 | 0.947 ± 0.04 | – |
| C[C@H](NC(=O)C[C@@H]1C=C[C@@H](NC(=O)c2cccnc2)[C@@H](CO)O1)c1ccccc1 | 0.8802 ± 0.0082 | – |
| C[C@@H]1CN([C@H](C)CO)C(=O)Cc2cc(NS(=O)(=O)c3cn(C)cn3)ccc2O[C@H]1CN(C)Cc1ccc2c(c1)OCO2 | 1.06 ± 0.046 | – |
| O=C(N[C@H]1C=C[C@@H](CC(=O)N2CCN(c3ccccc3)CC2)O[C@H]1CO)c1ccccc1 | 1.04 ± 0.087 | – |
| C[C@@H]1CN([C@H](C)CO)C(=O)c2cc(NS(=O)(=O)c3cccs3)ccc2O[C@H]1CN(C)S(=O)(=O)c1ccc(Cl)cc1 | 0.977 ± 0.069 | – |
| COc1ccc(C#Cc2ccc([C@H]3[C@H]4CN(C)CCCCN4[C@H]3CO)cc2)cc1 | 0.972 ± 0.078 | – |
| Cc1ccc(OC(=O)N(C)C[C@@H]2OCc3ccccc3-c3ccccc3C(=O)N([C@H](C)CO)C[C@H]2C)cc1 | 0.834 ± 0.091 | – |
| O=C(CCN1CCCCC1)NCC[C@@H]1CC[C@@H](NS(=O)(=O)c2cccc(Cl)c2)[C@@H](CO)O1 | 0.965 ± 0.015 | – |
| COCC(=O)N1[C@H](C(=O)N2CCN(C)CC2)[C@@H](CO)[C@@H]2Cn3c(ccc(C4=CCCCC4)c3=O)[C@@H]21 | 1.02 ± 0.048 | – |
| CCCC(=O)N1C[C@@H]2[C@H](c3ccccc31)[C@H](CO)N2C(=O)Nc1ccc(F)cc1 | 1.05 ± 0.19 | – |
| CO[C@@H]1CN(C)C(=O)c2cc(NC(=O)Cc3ccccc3)ccc2OC[C@@H](C)N(C(=O)c2ccccc2F)C[C@@H]1C | 0.985 ± 0.018 | – |
| N#C[C@H]1[C@@H](c2ccccc2/C=C/c2ccccc2)[C@@H](CO)N1S(=O)(=O)c1cccc(F)c1 | 1.082 ± 0.01 | – |
| CN1C(=O)c2cc(NC(=O)c3ccc(C(F)(F)F)cc3)ccc2OC[C@H]2O[C@@H](CC(=O)NCc3ccc4c(c3)OCO4)CC[C@H]21 | 1.13 ± 0.015 | – |
